Out of some 150,000 compounds screened, about 540 (0.36%) showed an effect of 50% or more. This is one part of the list.
Each compound was assayed on Plasmodium falciparum (assay: Primary screen in NF54 nanoGlo assay, in single point, at 2uM, 72h; a lower Z score goes with more inhibition). Settings: timepoint 72 hour.
Assay type: functional, Erythrocyte

SMILES	% Inhibition [%]	Z score
Cc1nnsc1CN(C)Cc1noc(-c2ccco2)n1	-11	2.01
CCCc1ccc(CN2CCOC[C@@H]2CC(=O)Nc2ccc3c(c2)OCO3)o1	-7	0.69
CN1CC[C@H](CNC(=O)c2ccccc2NCc2ccccn2)C1	-15	2.12
COC(=O)CN(CCC#N)C[C@H]1CCOC1	-14	1.22
O=C(NC[C@H]1CCCO1)c1ccc(-c2cnc(=O)[nH]c2)cc1	3	-0.6
O=C1CN(C(=O)NC2CCCC2)CCN1	-10	1.41
CC1CCC(N2C[C@@H]3C[C@H]2C(=O)NC[C@H]2O[C@H](CCOc4cc(-c5ccncc5)ccc4C(=O)N3)CC[C@@H]2O)CC1 (stereo partly specified)	-2	0.3
CC(C)COc1nc(-c2ccc(F)cc2)n(-c2cccc(NC(=O)c3ccco3)c2)n1	-7	0.85
CN(C)C(=O)[C@@H]1CN(CC2=CCCCC2)CCO1	-1	0.11
Cc1noc(C)c1C(=O)N1CC2(C[C@@H](c3nc(-c4ccncc4)no3)N(C)C2)C1	-6	0.7
Cc1nc2c(c(N3CC[C@](C)(O)[C@@H](O)C3)n1)CCC2	6	-1.19
CCS(=O)(=O)N1CCN(CCNC(=O)OC(C)(C)C)CC1	-13	1.95
N#Cc1cccc(C(=O)N[C@@H]2COCC[C@@H]2Oc2ccccc2)c1	-8	1.3
O=C(Nc1ccc2c(c1)OCO2)N1CCN(C(=O)c2nsc3ccccc23)CC1	4	-0.72
COC(=O)[C@H](C)Nc1cnn(CC(F)(F)F)c1	-9	1.31
O=C(CN1CCCCCC1)Nc1ccnn1CC1CCCCC1	11	-1.23
Cc1cc(N2CC(=O)N[C@H](CO)C2)nc(-c2cccs2)n1	0	0.04
C[C@@H](Cn1cccn1)NC(=O)c1cc(Br)c[nH]1	-2	0.3
Cn1c(=O)n(CCc2ccccc2)c2ccc(C(=O)NCc3ncc[nH]3)cc21	-4	0.48
CC(C)c1nc([C@@H]2CC3(CN(C(=O)CCc4ccccc4)C3)CN2C)no1	-14	1.6
CCOc1cc(CN(C(=O)[C@@H]2CNC(=O)C2)C2CCCCC2)ccc1OC	6	-1.22
Cc1ccc(C)c(CN(C)C[C@H](O)COCCOC(C)C)c1	-13	1.96

SMILES	% Inhibition [%]	Z score
O=C(NC1CCNCC1)[C@@H]1COc2ccccc2O1	-12	1.9
Cn1c(CCNC(=O)Cc2cccs2)nc2cccnc21	-17	2
CC(=O)N1CCN(c2c(C)cnc3c2c(=O)n(CC(=O)Nc2ccccc2F)c(=O)n3C)CC1	2	-0.33
O=C(Nc1c(S(=O)(=O)c2ccccc2)c2nc3ccccc3nc2n1CCc1ccccc1)c1ccc(Cl)cc1	101	-8.88
Cc1ccsc1[C@H]1CCN(Cc2cccnc2N)C[C@@H]1O	-6	1.12
O=C(NC[C@H]1CCCO1)c1ccc(-c2ccc3c(c2)OCCO3)s1	-5	0.52
COc1cccc2c1CC[C@]2(N)C(=O)N1CCN(C(C)=O)CC1	-5	0.76
Cn1ccnc1C(NC(=O)Nc1cc(C2(C)CCCC2)on1)c1nccn1C	9	-0.91
CCOc1cccc(Cl)c1Cn1cnn(C)c1=O	2	-0.31
Cc1ccc(OC(=O)c2cccc(C(=O)Oc3ccc(C)cc3)n2)cc1	-8	1.35
CCCC(CCC)N[C@H](CO)Cc1ccccc1	12	-1.61
Fc1cc(Cl)cnc1N1CCC(CN2CCOCC2)CC1	-10	1.05
Cc1ccc(C)c(-c2nc(Cn3c(=O)c4c(C)cc(C)nc4n(C)c3=O)c(C)o2)c1	34	-4.77
O=C(Nc1cc(C(F)(F)F)c[nH]c1=O)[C@@H]1Cc2ccccc2O1	-8	1.3
CC1CC(c2ccccc2)C(C)N1C(=O)c1ncncc1Cl (stereo unspecified)	-7	0.74
Cc1[nH]c(=O)[nH]c(=O)c1N(CCF)CCF	4	-0.78
COCCCNc1ncccc1OC(F)F	2	-0.33
O=C(NCCc1ccc(N2CCCC2)cc1)c1ccccc1	-1	0.17
CCC(CC)C(=O)N1CCC2(CCCN(C)[C@@H]2C(=O)N2CCCC2)CC1	2	-0.41
CC(C)c1nnc(Cn2nc(C(N)=O)nc2Cc2ccccc2)s1	-7	1.27
Cc1nc(-c2cc(S(=O)(=O)N3CCC(C(=O)N4CCC(C)CC4)CC3)c(C)s2)no1	-22	1.9
